This assay concerns the target T1, GAL4/HIF 1-826 (full length HIF-1α fused to the GAL4 DNA binding domain) (human, UniProt P04386 1-147; Q16665 1-826, [35S]methionine-labeled in the pull-down of paragraph 59 (in vitro translated)).
T1 construct: also called GAL4-HIF-1α; pCMX-GAL4-HIF-1α
Briefly: pull-down of in vitro translated [35S]-labelled GAL4/HIF 1-826 with purified GST on anti-GST affinity gel.

B1: GST alone (other)
chain: not shown
notes: Control; also called purified GST; empty GST expression vector
Take B1: the binding result is on record as “no binding”.

Source of the values: patent EP1141005B1 (Angiogenetics Sweden AB, dated 2007).
